The source of these data is ChEMBL document CHEMBL5308541, “MAIP: An Open-Source Tool to Enrich High-Throughput Screening Output and Identify Novel, Druglike Molecules with Antimalarial Activity” (ACS Med Chem Lett, 2023).

The whole screen tested about 4,800 compounds, of which about 420 (8.8%) showed an effect of 50% or more. Some of the results follow.

Broadly, the % Inhibition is the change of the read-out against control, counted positive when it falls.

The subject of the test is Plasmodium falciparum. In words: Confirmatory screen in NF54 nanoGlo assay, in single point, at 2uM, 72h. Type of test: functional, Erythrocyte. Conditions: timepoint 72 hour.
For the molecule `COC(=O)c1cn(CCNc2ccnc3cc(Cl)ccc23)cc2c(O)nnc1-2`, the “% Inhibition” value worked out at 95%.

As for `CCOc1ccc2nc(CN(CC)CC3CCN(C4CCN(C)CC4)CC3)ccc2c1`, the “% Inhibition” value came out at 82%.

Turning to `c1ccc(CN2CCC(CCNC[C@@H]3CCCN4CCCC[C@H]34)CC2)cc1`, the “% Inhibition” value amounted to 61%.

Regarding `Cc1cccc(N2CCC(NCc3cc(C)cc(CN4CCN(C)CC4)c3C)CC2)c1`, the “% Inhibition” value worked out at 61%.

As to `COc1ccnc(NCCCc2nc(-c3ccncc3)cs2)n1`, the “% Inhibition” value is 65%.

Regarding `Cc1ccc2[nH]cc(-c3cc(N4CCOCC4)nc(N)n3)c2c1`, the “% Inhibition” value was determined as 57%.

With `C[C@@H](CNC1CCN(C2CCN(C)CC2)CC1)c1cccc(Cl)c1`, the “% Inhibition” value was determined as 98%.

Consider `CCc1cc(Nc2ccc(N3CCOCC3)nc2)nc(-c2ccncc2)n1`, for which the “% Inhibition” value is reported as 49%.

For `CNc1nc(N2CCN(CC(=O)NC3CCCCC3)CC2)nc2ccccc12`, the “% Inhibition” value stood at 23%.

`COc1ccc2nc3cc(Cl)ccc3c(O)c2c1`: the “% Inhibition” value is listed as 57%.

Regarding `Cc1ccc2nc(CCCNC3CCN(c4cc(C)nc(N)n4)CC3)oc2c1`, the “% Inhibition” value is listed as 29%.

With `O=C(NCC1CC1)c1cc2c(OCc3ccc(Cl)cc3)cccc2[nH]1`, the “% Inhibition” value amounted to 57%.

With `CCc1oc2ccccc2c1CNC[C@H](O)c1ccc(Cl)cc1`, the “% Inhibition” value is given as 99%.

With `Cc1cnccc1NCCNCc1cccc(OCCCCN2CCOCC2)c1`, the “% Inhibition” value is listed as 95%.

Consider `Cc1cc(O)c(Cl)cc1-c1ccc2nccc(N)c2c1`, for which the “% Inhibition” value is listed as 90%.

Consider `O=C(Nc1cnc2c(c1)COCC2)c1cc2c(OC(F)(F)F)cccc2[nH]1`, for which the “% Inhibition” value turned out to be 95%.

As for `Nc1ccnc(-c2cccc3[nH]ccc23)c1`, the “% Inhibition” value came to 6%.

For the molecule `COc1ccc2cc(-c3cc(N)ccn3)[nH]c2c1`, the “% Inhibition” value is listed as 55%.

For `Cc1ccn2cc(-c3ccc(N4CCC(NCc5cccnc5)CC4)cc3)nc2c1`, the “% Inhibition” value was 60%.

With `O=C1C2CCCCC2C(c2c(-c3ccccc3)[nH]c3ccccc23)N1Cc1ccccc1` (configuration not stated), the “% Inhibition” value is listed as 40%.

As to `Cc1nc2ccc(CNC3CCN(c4ccc(F)c(F)c4)CC3)cc2[nH]1`, the “% Inhibition” value was determined as 56%.

As for `CCN(C)CCNc1cc(C)nc(C)n1`, the “% Inhibition” value is on record as 19%.

As for `CCNc1cc(C)nc(NCCNC(=O)Nc2cc(F)cc(F)c2)n1`, the “% Inhibition” value was 76%.

As to `Cc1cc(NC[C@H](O)COc2ccc(F)cc2)nc2ccccc12`, the “% Inhibition” value is given as 76%.

Regarding `O=C(CC1CCNCC1F)Nc1ccc(Oc2ccnc3ccccc23)cc1` (configuration not stated), the “% Inhibition” value came to 14%.

As to `c1ccc(CCC23CN(Cc4ccccn4)CC2CN(Cc2ccns2)C3)cc1` (configuration not stated), the “% Inhibition” value was found to be 88%.

As for `COCCNc1nc(N[C@@H](C)c2ccccc2)c2ccccc2n1`, the “% Inhibition” value amounted to 63%.

As to `Cc1ccc2[nH]c(CNC[C@@H](CO)C3CCC3)cc2c1C`, the “% Inhibition” value is recorded as 65%.

`O=C(NCCN1CCCCC1)c1cccc(-c2cnc3ccc(F)cn23)c1`: the “% Inhibition” value is 26%.

In the case of `CCOc1cccc(N2CCN(C(=O)c3cc(-c4ccc(F)cc4)[nH]n3)CC2)n1`, the “% Inhibition” value was determined as 32%.

Regarding `Cc1cccc(Nc2ccnc(Nc3ccc(N4CCN(C)CC4)cc3)n2)c1`, the “% Inhibition” value was 93%.

For `COc1ccc(-c2cncc(C(=O)NCC3CCN(CCN(C)C)CC3)c2)cc1`, the “% Inhibition” value is given as 94%.

As for `c1ccc(-c2nc3c(c(NCCNc4ncccn4)n2)CCC3)nc1`, the “% Inhibition” value was 25%.

For the molecule `CCN1CCN(c2ccc(CNCc3cccc(O)c3)cc2F)CC1`, the “% Inhibition” value is listed as 39%.

For the molecule `O[C@@H](CNCc1cc2cc(Cl)c(Cl)cc2[nH]1)c1ccc(F)cc1`, the “% Inhibition” value is reported as 79%.

As for `FC(F)(F)c1ccc(-c2c(-c3ccccc3)ncn2Cc2ncn[nH]2)cc1`, the “% Inhibition” value was found to be 34%.

As for `CN([C@@H](c1ccccc1)c1ccccc1Br)S(=O)(=O)c1c[nH]c2ncccc12`, the “% Inhibition” value is 47%.

For the molecule `COc1ccc(CNCc2cc3ccccc3[nH]2)cc1CN(C)C`, the “% Inhibition” value was 59%.

For the molecule `OC1(c2ccc(Cl)cc2)CCN(C[C@@H]2CCCN3CCCC[C@H]23)CC1`, the “% Inhibition” value is recorded as 73%.

With `Cc1ccccc1-c1cccc(N2CCC(NCC3CCNCC3)CC2)c1`, the “% Inhibition” value worked out at 99%.

As to `Cc1cc(F)ccc1N1CCC(NCCCNc2cccnc2)CC1`, the “% Inhibition” value is on record as 18%.

In the case of `c1ccc(-c2ccnc(C3CCN(CC45CNCC4C5)CC3)n2)cc1` (configuration not stated), the “% Inhibition” value was found to be 94%.

Take `O=C(CCc1nnc(-c2ccc(-c3ccccc3)cc2)o1)NC[C@@H]1CCCN2CCCC[C@H]12`: the “% Inhibition” value came to 56%.

With `CN(C)C1(CNc2nc(C(F)(F)F)nc3cc(F)ccc23)CCCCCC1`, the “% Inhibition” value was found to be 61%.

As for `NCC1(O)CCN(c2ccnc3cc(F)c(Cl)cc23)CC1`, the “% Inhibition” value was determined as 94%.

In the case of `Cc1cc(NC[C@H]2CN(CC(C)C)CCO2)c2ccccc2n1`, the “% Inhibition” value was determined as 26%.

For `CCN1CCC[C@H](CNCc2cn(-c3ccccc3)nc2C(C)C)C1`, the “% Inhibition” value was determined as 9%.

`O=C(NCCNc1ccnc2ccncc12)c1ccc(C(F)(F)F)cc1`: the “% Inhibition” value is given as 27%.

In the case of `N#Cc1cccc(Cl)c1N1CCC(N2CCCC2)CC1`, the “% Inhibition” value is on record as 27%.

As to `CN1CCN(CCOc2ccccc2CN(C)Cc2cc3cc(F)ccc3[nH]2)CC1`, the “% Inhibition” value came out at 87%.

Turning to `CN(C)Cc1cccc(CCNCc2csc(-c3ccc(C(F)(F)F)cc3)n2)c1`, the “% Inhibition” value turned out to be 74%.

Regarding `Cc1ccc2c(-c3ccccc3CN3CCNCC3)cccc2n1`, the “% Inhibition” value was 29%.

Consider `CCc1ccc2ncnc(NCCCN3CCN(CCO)CC3)c2c1`, for which the “% Inhibition” value is on record as 43%.

Take `Cn1cncc1[C@@H]1CNC[C@H]1CNC(=O)c1ccccc1NC1CCCCC1`: the “% Inhibition” value turned out to be 79%.

Take `CCCC(=O)NC1COCC1Cc1ccncc1` (configuration not stated): the “% Inhibition” value is 83%.

Turning to `CN1CCN(CC2CCN(c3ccnc4ccccc34)CC2)CC1`, the “% Inhibition” value is given as 99%.

With `Cc1ccccc1CN1CCC(CNc2c3c(nc4ccccc24)CCC3)CC1`, the “% Inhibition” value worked out at 95%.

Turning to `CCN1CCC[C@H](CN(C)C2CCN(c3ccc(NC(=O)c4ccc(OC)cc4)cc3)CC2)C1`, the “% Inhibition” value was -3%.

Take `CC(CNc1nc(NCC(C)N2CCOCC2)c2cc(Cl)ccc2n1)N1CCOCC1` (configuration not stated): the “% Inhibition” value came to 87%.

For `CN(CCCc1cc(-c2ccc(F)cc2)n[nH]1)CC1CCNCC1`, the “% Inhibition” value came out at 17%.

As for `CN1CCN(CCNC2CCN3CCCC3C2)C(c2ccccc2)C1` (configuration not stated), the “% Inhibition” value came out at 32%.

Take `Nc1ccc(-c2cc(OC(F)(F)F)ccc2O)cn1`: the “% Inhibition” value is on record as 11%.

For the molecule `O=C(NCc1ccc(OC(F)(F)F)cc1)N(CCN1CCCC1)[C@H]1CCCNC1`, the “% Inhibition” value came out at 27%.

Consider `O=C(NCc1ccc(N2CCNCC2)c(F)c1)c1ccc(-c2noc(C(F)(F)F)n2)cc1`, for which the “% Inhibition” value is given as 57%.

Regarding `Cc1ccc2[nH]c(-c3cc4n(n3)CCN(c3ccnc(N)n3)C4)nc2c1C`, the “% Inhibition” value came to 89%.

Regarding `CNc1nc(N[C@H]2CCCN(Cc3ccc(Cl)cc3)C2)nc2c1CCC2`, the “% Inhibition” value turned out to be 79%.

Turning to `CC1(N2CCC2)CCC(NC[C@H]2CCN(Cc3ccccc3)C2)CC1` (some centres not stated), the “% Inhibition” value is reported as 66%.

On to `CN1C(C)(C)CC(NC(=O)c2ccc(-c3cc(-c4cccc(C(F)(F)F)c4)n[nH]3)cc2)CC1(C)C`, for which the “% Inhibition” value is on record as 45%.

As for `Cc1ccccc1-c1cccc(CNCCCN2CCC[C@H](O)C2)c1`, the “% Inhibition” value came to 12%.

In the case of `COCCN1CC[C@H](CNC2CCN(c3ncc4ccc(F)cc4n3)CC2)C1`, the “% Inhibition” value was determined as 59%.

Take `OC1CN(Cc2cnc(C3CCCCC3)nc2)CCC1Nc1ncccn1` (configuration not stated): the “% Inhibition” value came out at 1%.

With `O[C@H](COc1ccccc1CNCc1cc(-c2ccccc2)[nH]n1)CN1CCCCC1`, the “% Inhibition” value was found to be 80%.

As for `CCN1CCN(C[C@@H](C)CNCc2cc(-c3ccccc3)ccc2OC)CC1`, the “% Inhibition” value is -6%.

As for `COCCN1CC[C@H](CN(C)c2ccnc3cc(Cl)ccc23)C1`, the “% Inhibition” value amounted to 98%.

For `CCCc1cccc(CNC2CCN(C3CCN(C)CC3)CC2)c1`, the “% Inhibition” value came to 58%.

Consider `OCC1CCCN1CCCCNC1CC2(CCC2)Oc2ccccc21` (configuration not stated), for which the “% Inhibition” value was found to be 2%.

For the molecule `COc1cc2nc(-c3ccc(F)c4cccnc34)nc(N)c2cc1OC`, the “% Inhibition” value came to 98%.

`COCCCN1CCC(Nc2ncnc3cc(C)c(C)cc23)CC1`: the “% Inhibition” value was found to be 97%.

In the case of `CN1CCC[C@H](CN2CCN(Cc3cc4n(n3)CCCNC4)CC2)C1`, the “% Inhibition” value is listed as -4%.

As for `COc1ccc2nc(C)cc(NCc3cccc(NC(=O)c4ccco4)c3)c2c1`, the “% Inhibition” value turned out to be 96%.

In the case of `c1ccc2c(Nc3ccc4[nH]cnc4c3)c3ccccc3nc2c1`, the “% Inhibition” value amounted to 98%.

As to `COC(CN(Cc1nc(N)nc(Nc2ccc(C)cc2)n1)Cc1nc(N)nc(Nc2ccc(C)cc2)n1)OC`, the “% Inhibition” value was determined as 84%.

Consider `CCN(Cc1cnn(-c2cccc(Cl)c2)c1)CC1CCN(C2CCN(C)CC2)CC1`, for which the “% Inhibition” value was 79%.

For the molecule `CC1CN(c2ccccc2NC(=O)c2ccc(-c3cnco3)cc2)CC(C)O1` (configuration not stated), the “% Inhibition” value was -6%.

Regarding `CC(C)c1ccc(-c2nc(CN3CCCCC3)cc(CN3CCCCC3)c2O)cc1`, the “% Inhibition” value worked out at 93%.

Turning to `Clc1cccc(N2CC[C@H](CNC3CCN(Cc4ccco4)CC3)C2)c1`, the “% Inhibition” value is 66%.

As to `O=C(n1nnc2cc(Cl)c(Cl)cc21)C(F)(F)F`, the “% Inhibition” value worked out at 15%.

As for `Cc1cc(N2CCC(NCCCN3CCCc4ccccc43)CC2)nc(N)n1`, the “% Inhibition” value stood at 74%.

In the case of `OCCCNc1nn2cc(-c3ccc(F)cc3)nc2s1`, the “% Inhibition” value amounted to 0%.

Consider `CN(C)C1(CNc2nc(C(F)(F)F)nc3cc4c(cc23)OCO4)CCCCCC1`, for which the “% Inhibition” value was found to be 49%.

For `O[C@H]1CCN(Cc2ccccc2CNc2cccc(-n3ccnc3)n2)C1`, the “% Inhibition” value is given as 94%.

Turning to `Cc1cnccc1NCCNCc1cnc(N2CCCCC2)nc1`, the “% Inhibition” value is recorded as 61%.

As to `CCN1C[C@H](Nc2nc(C)nc3sccc23)[C@@H](OC)C1`, the “% Inhibition” value came to 98%.

Consider `CNc1nc(C)c(-c2ccnc(Nc3cccc(S(C)(=O)=O)c3)n2)s1`, for which the “% Inhibition” value turned out to be 58%.

Consider `CC(NC(=O)OC(C)(C)C)C1CCN(C[C@@H]2CCCN2C(=O)OC(C)(C)C)CC1` (some centres not stated), for which the “% Inhibition” value is 17%.

On to `Nc1cc(N2CCC(c3nc4cc(F)ccc4[nH]3)CC2)nc(N2CCOCC2)n1`, for which the “% Inhibition” value was determined as 39%.

On to `COc1ccc2[nH]cc(C3=CCN(c4ccc5nnc(-c6ccccc6F)n5n4)CC3)c2c1`, for which the “% Inhibition” value was 51%.

`O=C1CN(C(=O)c2ccnc3ccccc23)CCN1Cc1ccccc1F`: the “% Inhibition” value is 53%.

With `FC(F)(F)c1ccc(N2CCC[C@H](NC3CCN(Cc4ccco4)CC3)C2)nc1`, the “% Inhibition” value is 21%.

On to `NC(=O)[C@]1(O)CCN(c2ccnc3ccc(Oc4ccccc4)cc23)C1`, for which the “% Inhibition” value is recorded as 29%.

Regarding `Cc1ccc2nc(-c3cccc(NC(=O)c4ccc(OC(F)(F)F)c(Cl)c4)c3)[nH]c2n1`, the “% Inhibition” value turned out to be 72%.

Regarding `Cc1ccc(-c2cccc3c(C(=O)NCCCN4CCC(N5CCCCC5)CC4)cc(C)nc23)cc1`, the “% Inhibition” value is on record as 98%.
